{"source": "the RNAGym collection of RNA variant scans (doi:10.1093/nar/gkz1192)", "parents": {"B1": {"name": "CPEB3 Ribozyme (parent)", "chain": "UAACAGGGGGCCACAGCAGAAGCGUUCACGUCGCAGCCCCUGUCAGAUUCUGGUGAAUCUGCGAAUUCUGCUGUAUAUCUC"}}, "note": "The source gives no read counts; variants with many changes may rest on few reads.", "data": [{"variants_of": "B1", "assay": "self-cleavage, relative activity (ratio to wild type); higher = more cleavage; in vitro, sequencing", "outline": "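CPEB3 self-cleaving ribozyme mutant libraries were made by rounds of error-prone PCR, barcoded, and transcribed in vitro with T7 RNA polymerase for 5 hours at 37°C. Cleavage occurred during transcription and a 15 min DNase I step before EDTA stop. RNAs were reverse transcribed with template switching and Illumina-sequenced, with DNA sequencing mapping barcodes to variants. Relative activity is the variant's cleaved/total read fraction divided by wild type's (minimum 5 reads), averaged across three batches.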", "values": [{"variant": "UAACAGGGGGCCACAGCAGAAGCGUUCACGUCGCAGCCCUUGUUAGAUUCUGGUGAAUCUGCGAACUCUGCUGUAUAUCUU", "note": "[C40U C44U U66C C81U]", "self-cleavage": 0.12}, {"variant": "UAACAGGGGGCCACAGCAGAAGCGUUCACGUCGCAGCCUCUGUCAGAUCCUGGUGAAUCAGCGAAUUCUGCUGUAUAUCUC", "note": "[C39U U49C U60A]", "self-cleavage": 0.17}, {"variant": "UAACAGGGGGCCACAGCAGAAGCGUUCACGUCGCAGCCACUGUCAGAAUCUGGUGAAUCCGCGAAUUCUGCUGUAUAUCUC", "note": "[C39A U48A U60C]", "self-cleavage": 0.18}, {"variant": "UAACAGGGGGCCACAGCAGAAGCGUUCACGUCGCAGCCCUUGUCAGAUUCUGGUGAAUCUGCGAGUUCUGCCGGAUAUCUC", "note": "[C40U A65G U72C U74G]", "self-cleavage": 0.24}, {"variant": "UAACAGGGGGCCACAGCAGAAGCGUUCACGUCGCAGCGCCUGUCAGAUUCUGGCGUAUCUGCGAAUUCUGCUGUAUAUCUC", "note": "[C38G U54C A56U]", "self-cleavage": 0.09}, {"variant": "UAACAGGGGGCCACAGCAGAAGCGUUCACGUCGCAGCCCAUGUCAGAUUCUGGUGAAUCUGCUAAUUCUGCUGUGUAUCUC", "note": "[C40A G63U A75G]", "self-cleavage": 0.2}, {"variant": "UAACAGGGGGCCACAGCAGAAGCGUUCACGUCGCAGCCUCUGUCAGAUUCUGGUGAAUCUGCAAAUUCUGCUGUAUACCUC", "note": "[C39U G63A U78C]", "self-cleavage": 0.26}, {"variant": "UAACAGGGGGCCACAGCAGAAGCGUUCACGUCGCAGCUCCUGUCAGAUUCUGGUGAAUCUGCUAAUUCUGCGGUAUAUCUC", "note": "[C38U G63U U72G]", "self-cleavage": 1.32}, {"variant": "UAACAGGGGGCCACAGCAGAAGCGUUCACGUCGCAGCCCGCGUCAGAUUCUGGUGAAUCUGCGAAUUCUGCCGUAUAUCUC", "note": "[C40G U41C U72C]", "self-cleavage": 0.61}, {"variant": "UAACAGGGGGCCACAGCAGAAGCGUUCACGUCGCAGCCCAUGUCAGAUUCUGGCGAAUCAGCGAAUUCUGCUGUAUAUCUC", "note": "[C40A U54C U60A]", "self-cleavage": 0.14}, {"variant": "UAACAGGGGGCCACAGCAGAAGCGUUCACGUCGCAGCCGCUGUCAGAUUCUGGUGAAACUGCGAAUUCUGCUGUGUAUCCC", "note": "[C39G U58A A75G U80C]", "self-cleavage": 0.08}, {"variant": "UAACAGGGGGCCACAGCAGAAGCGUUCACGUCGCAGCCCUUGUCUGACUCUGGUGAAUCUGCGAAUCCUGCUGUAUAUCUC", "note": "[C40U A45U U48C U67C]", "self-cleavage": 0.09}, {"variant": "UAACAGGGGGCCACAGCAGAAGCGUUCACGUCGCAGCCCAUGUCAGAUUCUGGAGGAUCUGCGAAUUCUGCUGUAUAUCUC", "note": "[C40A U54A A56G]", "self-cleavage": 0.22}, {"variant": "UAACAGGGGGCCACAGCAGAAGCGUUCACGUCGCAGCCUCUGUCAGAUUCUGGAGAAUCUGCGAAUUCCGCUGUAUAUCUC", "note": "[C39U U54A U69C]", "self-cleavage": 0.3}, {"variant": "UAACAGGGGGCCACAGCAGAAGCGUUCACGUCGCAGCCCAUGUCAGAUUCUGGUGAAUCUGCGAAUCCUGCUGUAGAUCUC", "note": "[C40A U67C U76G]", "self-cleavage": 0.16}, {"variant": "UAACAGGGGGCCACAGCAGAAGCGUUCACGUCGCAGCCCUUGUCGGGUUCUGGUGAAUCUGCGUAUUCUGCUGUAUAUCUC", "note": "[C40U A45G A47G A64U]", "self-cleavage": 0.09}, {"variant": "UAACAGGGGGCCACAGCAGAAGCGUUCACGUCGCAGCCCAUGUCUGAUUCUGGUGAAUCUGCGGAUUCUGCUGUAUAUCUC", "note": "[C40A A45U A64G]", "self-cleavage": 0.2}, {"variant": "UAACAGGGGGCCACAGCAGAAGCGUUCACGUCGCAGCCCGCGCCAGAUUCUGGUGAGUCCGCGAAUUCUGCUGUAUAUCUC", "note": "[C40G U41C U43C A57G U60C]", "self-cleavage": 0.13}, {"variant": "UAACAGGGGGCCACAGCAGAAGCGUUCACGUCGCAGCCUCAGUCAGAUUCUGGUGAAUCCGCGAAUUCUGCUGUAUAUCUC", "note": "[C39U U41A U60C]", "self-cleavage": 0.13}, {"variant": "UAACAGGGGGCCACAGCAGAAGCGUUCACGUCGCAGCUCCUGUCAGAUUCUGGUGAACCUGCGAAUUCUGCUGUAUAUAUC", "note": "[C38U U58C C79A]", "self-cleavage": 0.72}, {"variant": "UAACAGGGGGCCACAGCAGAAGCGUUCACGUCGCAGCCUCCGUCAGAUCCUGGUGAAUCUGCGAAUUCUGCUGUAUAUCUC", "note": "[C39U U41C U49C]", "self-cleavage": 0.75}, {"variant": "UAACAGGGGGCCACAGCAGAAGCGUUCACGUCGCAGCUCCUGUCGGACUCUGGUGAAUCUGCGAAUUCUGCUGUAUAUCUC", "note": "[C38U A45G U48C]", "self-cleavage": 0.09}, {"variant": "UAACAGGGGGCCACAGCAGAAGCGUUCACGUCGCAGCCUCUGUCAGAUUCUGGUGAAUCUGCGGAUUCUGCUGUAUACCUC", "note": "[C39U A64G U78C]", "self-cleavage": 0.25}, {"variant": "UAACAGGGGGCCACAGCAGAAGCGUUCACGUCGCAGCCCUUGUCAGGCACUGGUGAAUCUGCGAAUACUGCUGUAUACCUC", "note": "[C40U A47G U48C U49A U67A U78C]", "self-cleavage": 0.1}, {"variant": "UAACAGGGGGCCACAGCAGAAGCGUUCACGUCGCAGCCCAUGUCAGAUUCCGGUGAAUCUGCGUAUUCUGCUGUAUAUCUC", "note": "[C40A U51C A64U]", "self-cleavage": 0.07}, {"variant": "UAACAGGGGGCCACAGCAGAAGCGUUCACGUCGCAGCCUCUGUCAGGUUCUGGUGAAUCUGCGAAUUCCGCUGUUUAUCCC", "note": "[C39U A47G U69C A75U U80C]", "self-cleavage": 0.08}, {"variant": "UAACAGGGGGCCACAGCAGAAGCGUUCACGUCGCAGCCACUGCCAGAUUCUGGUGAAUCAGCGAAUACUGCUGUAUAUCUC", "note": "[C39A U43C U60A U67A]", "self-cleavage": 0.09}, {"variant": "UAACAGGGGGCCACAGCAGAAGCGUUCACGUCGCAGCCCAUGUCAGAUUCUGGUGAGUCUGCGAAUUCGGCUGUAUAUCUC", "note": "[C40A A57G U69G]", "self-cleavage": 0.13}, {"variant": "UAACAGGGGGCCACAGCAGAAGCGUUCACGUCGCAGCCCAUGUCAGAUUCUGGUGAAUCUACGGAUUCUGCUGUAUAUCUC", "note": "[C40A G61A A64G]", "self-cleavage": 0.14}, {"variant": "UAACAGGGGGCCACAGCAGAAGCGUUCACGUCGCAGCCCAUGACAGAUCCUGGUGGAUCUGCGAAUUCUGCUGUAUAUCUC", "note": "[C40A U43A U49C A56G]", "self-cleavage": 0.18}, {"variant": "UAACAGGGGGCCACAGCAGAAGCGUUCACGUCGCAGCCCAUGUCAGACUCUGGUGAAUCUGCGGAUUCUGCUGUAAAUCUC", "note": "[C40A U48C A64G U76A]", "self-cleavage": 0.2}, {"variant": "UAACAGGGGGCCACAGCAGAAGCGUUCACGUCGCAGCCACUGUCAGAUUCUGGUGAAUCUGCCAACUCUGCUGUAUAUAUC", "note": "[C39A G63C U66C C79A]", "self-cleavage": 0.14}, {"variant": "UAACAGGGGGCCACAGCAGAAGCGUUCACGUCGCAGCCCAUGUCAAAUUCUGGUGAAUCUGCGAAUUCUGCUAUAUAUCUC", "note": "[C40A G46A G73A]", "self-cleavage": 0.38}, {"variant": "UAACAGGGGGCCACAGCAGAAGCGUUCACGUCGCAGCCCACGUCAGAUUCUGGUGUAUCUGCGAAUUCAGCCGUAUAUCUC", "note": "[C40A U41C A56U U69A U72C]", "self-cleavage": 0.08}]}]}
